Article PMC9911399, “Two distinct binding modes provide the RNA-binding protein RbFox with extraordinary sequence specificity”
Positions count from the first letter of the chain named. The list shows a part of the results.

T1: RBFOX1 RRM RbFoxmut (Fox-RRM*) (Homo sapiens, UniProt Q9NWB1 109-208, R118D;E147R;N151S;E152T)
T1 sequence: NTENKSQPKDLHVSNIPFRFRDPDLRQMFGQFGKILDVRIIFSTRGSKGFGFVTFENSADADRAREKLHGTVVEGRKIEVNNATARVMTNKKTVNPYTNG

B1: AACGCGC (DNA:RNA)
RNA: GGGAGACCGGAAUUCAGAUUGUCCAACGCGCUUAAAUCCCGUCGUAGCCACCA
DNA 1: CAATCTGAATTCCGGTCTCCC
DNA 2: TGGTGGCTACGACGGGATT
B2: CCGUGCU (DNA:RNA)
RNA: GGGAGACCGGAAUUCAGAUUGUCCCCGUGCUUUAAAUCCCGUCGUAGCCACCA
DNA 1: CAATCTGAATTCCGGTCTCCC
DNA 2: TGGTGGCTACGACGGGATT
B3: AAGCGCG (DNA:RNA)
RNA: B2 RNA with C25A, C26A, U28C, U31G
DNA 1: CAATCTGAATTCCGGTCTCCC
DNA 2: TGGTGGCTACGACGGGATT
B4: ACCGAUC (DNA:RNA)
RNA: B1 RNA with A26C, C29A, G30U
DNA 1: CAATCTGAATTCCGGTCTCCC
DNA 2: TGGTGGCTACGACGGGATT
B5: GCUCGCG (DNA:RNA)
RNA: B2 RNA with C25G, G27U, U28C, U31G
DNA 1: CAATCTGAATTCCGGTCTCCC
DNA 2: TGGTGGCTACGACGGGATT
B6: CGUUAAU (DNA:RNA)
RNA: B2 RNA with C26G, G27U, G29A, C30A
DNA 1: CAATCTGAATTCCGGTCTCCC
DNA 2: TGGTGGCTACGACGGGATT
B7: CUACCAG (DNA:RNA)
RNA: B1 RNA with A25C, A26U, C27A, G28C, G30A, C31G
DNA 1: CAATCTGAATTCCGGTCTCCC
DNA 2: TGGTGGCTACGACGGGATT
B8: UUUAAGC (DNA:RNA)
RNA: B1 RNA with A25U, A26U, C27U, G28A, C29A
DNA 1: CAATCTGAATTCCGGTCTCCC
DNA 2: TGGTGGCTACGACGGGATT
B9: CUGUGGC (DNA:RNA)
RNA: B2 RNA with C26U, C30G, U31C
DNA 1: CAATCTGAATTCCGGTCTCCC
DNA 2: TGGTGGCTACGACGGGATT
B10: GGACAAC (DNA:RNA)
RNA: B1 RNA with A25G, A26G, C27A, G28C, C29A, G30A
DNA 1: CAATCTGAATTCCGGTCTCCC
DNA 2: TGGTGGCTACGACGGGATT
B11: GUGAUGA (DNA:RNA)
RNA: B1 RNA with A25G, A26U, C27G, G28A, C29U, C31A
DNA 1: CAATCTGAATTCCGGTCTCCC
DNA 2: TGGTGGCTACGACGGGATT
B12: CGUGUGA (DNA:RNA)
RNA: B1 RNA with A25C, A26G, C27U, C29U, C31A
DNA 1: CAATCTGAATTCCGGTCTCCC
DNA 2: TGGTGGCTACGACGGGATT
B13: CUGAUGC (DNA:RNA)
RNA: B1 RNA with A25C, A26U, C27G, G28A, C29U
DNA 1: CAATCTGAATTCCGGTCTCCC
DNA 2: TGGTGGCTACGACGGGATT
B14: GUGAUGG (DNA:RNA)
RNA: B1 RNA with A25G, A26U, C27G, G28A, C29U, C31G
DNA 1: CAATCTGAATTCCGGTCTCCC
DNA 2: TGGTGGCTACGACGGGATT
B15: CCCCUGG (DNA:RNA)
RNA: B1 RNA with A25C, A26C, G28C, C29U, C31G
DNA 1: CAATCTGAATTCCGGTCTCCC
DNA 2: TGGTGGCTACGACGGGATT
B16: AUCCGUA (DNA:RNA)
RNA: B1 RNA with A26U, G28C, C29G, G30U, C31A
DNA 1: CAATCTGAATTCCGGTCTCCC
DNA 2: TGGTGGCTACGACGGGATT
B17: CAAUAGC (DNA:RNA)
RNA: B1 RNA with A25C, C27A, G28U, C29A
DNA 1: CAATCTGAATTCCGGTCTCCC
DNA 2: TGGTGGCTACGACGGGATT
B18: ACGAAGG (DNA:RNA)
RNA: B1 RNA with A26C, C27G, G28A, C29A, C31G
DNA 1: CAATCTGAATTCCGGTCTCCC
DNA 2: TGGTGGCTACGACGGGATT
B19: CCGUUAA (DNA:RNA)
RNA: B2 RNA with G29U, C30A, U31A
DNA 1: CAATCTGAATTCCGGTCTCCC
DNA 2: TGGTGGCTACGACGGGATT
B20: CCACACC (DNA:RNA)
RNA: B2 RNA with G27A, U28C, G29A, U31C
DNA 1: CAATCTGAATTCCGGTCTCCC
DNA 2: TGGTGGCTACGACGGGATT
B21: CGAAUAG (DNA:RNA)
RNA: B2 RNA with C26G, G27A, U28A, G29U, C30A, U31G
DNA 1: CAATCTGAATTCCGGTCTCCC
DNA 2: TGGTGGCTACGACGGGATT
B22: CCACCGG (DNA:RNA)
RNA: B1 RNA with A25C, A26C, C27A, G28C, C31G
DNA 1: CAATCTGAATTCCGGTCTCCC
DNA 2: TGGTGGCTACGACGGGATT
B23: AUGCGGA (DNA:RNA)
RNA: B1 RNA with A26U, C27G, G28C, C29G, C31A
DNA 1: CAATCTGAATTCCGGTCTCCC
DNA 2: TGGTGGCTACGACGGGATT
B24: GGUCGGG (DNA:RNA)
RNA: B1 RNA with A25G, A26G, C27U, G28C, C29G, C31G
DNA 1: CAATCTGAATTCCGGTCTCCC
DNA 2: TGGTGGCTACGACGGGATT
B25: AAUGAAA (DNA:RNA)
RNA: B1 RNA with C27U, C29A, G30A, C31A
DNA 1: CAATCTGAATTCCGGTCTCCC
DNA 2: TGGTGGCTACGACGGGATT
B26: GAGUUCU (DNA:RNA)
RNA: B2 RNA with C25G, C26A, G29U
DNA 1: CAATCTGAATTCCGGTCTCCC
DNA 2: TGGTGGCTACGACGGGATT
B27: UAUAGUU (DNA:RNA)
RNA: B2 RNA with C25U, C26A, G27U, U28A, C30U
DNA 1: CAATCTGAATTCCGGTCTCCC
DNA 2: TGGTGGCTACGACGGGATT
B28: GCGGGUG (DNA:RNA)
RNA: B2 RNA with C25G, U28G, C30U, U31G
DNA 1: CAATCTGAATTCCGGTCTCCC
DNA 2: TGGTGGCTACGACGGGATT
B29: CUAACGC (DNA:RNA)
RNA: B1 RNA with A25C, A26U, C27A, G28A
DNA 1: CAATCTGAATTCCGGTCTCCC
DNA 2: TGGTGGCTACGACGGGATT
B30: CACUGUG (DNA:RNA)
RNA: B2 RNA with C26A, G27C, C30U, U31G
DNA 1: CAATCTGAATTCCGGTCTCCC
DNA 2: TGGTGGCTACGACGGGATT
B31: AUUCGAG (DNA:RNA)
RNA: B1 RNA with A26U, C27U, G28C, C29G, G30A, C31G
DNA 1: CAATCTGAATTCCGGTCTCCC
DNA 2: TGGTGGCTACGACGGGATT

Target: T1, RBFOX1 RRM RbFoxmut (Fox-RRM*)
Test: EMSA; HiTS-Eq, 1 nM pool, 10 min; buffer printed only for the single-RNA assays: 10 mM Tris pH 7.5, 150 mM NaCl, 3.4 mM EDTA, 0.001% NP-40, 30 C
Conditions: tags: His6 N-terminal (pET28a); label: 5' 32P
Procedure, shortened: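 Purified wild-type or mutant RbFox RRM at increasing concentrations was equilibrated with 1 nM of 5′-radiolabelled RNA carrying 7 randomized nucleotides for 10 min in 50 µL. Unbound RNA was separated by 8% native PAGE and sequenced. Relative association constants came from read-count changes of each RNA species compared with the control reaction, normalised to the cognate motif.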

Row | Binder | binding signal
1 | B1 | 0.0864 KA relative to UGCAUGU
2 | B2 | 0.106 KA relative to UGCAUGU
3 | B3 | 0.163 KA relative to UGCAUGU
4 | B4 | 0.0582 KA relative to UGCAUGU
5 | B5 | 0.109 KA relative to UGCAUGU
6 | B6 | 0.0999 KA relative to UGCAUGU
7 | B7 | 0.0672 KA relative to UGCAUGU
8 | B8 | 0.103 KA relative to UGCAUGU
9 | B9 | 0.102 KA relative to UGCAUGU
10 | B10 | 0.0564 KA relative to UGCAUGU
11 | B11 | 0.147 KA relative to UGCAUGU
12 | B12 | 0.162 KA relative to UGCAUGU
13 | B13 | 0.0932 KA relative to UGCAUGU
14 | B14 | 0.114 KA relative to UGCAUGU
15 | B15 | 0.0629 KA relative to UGCAUGU
16 | B16 | 0.145 KA relative to UGCAUGU

Row | Binder | binding signal
17 | B17 | 0.0872 KA relative to UGCAUGU
18 | B18 | 0.08 KA relative to UGCAUGU
19 | B19 | 0.0883 KA relative to UGCAUGU
20 | B20 | 0.117 KA relative to UGCAUGU
21 | B21 | 0.118 KA relative to UGCAUGU
22 | B22 | 0.0663 KA relative to UGCAUGU
23 | B23 | 0.1 KA relative to UGCAUGU
24 | B24 | 0.0602 KA relative to UGCAUGU
25 | B25 | 0.0929 KA relative to UGCAUGU
26 | B26 | 0.0638 KA relative to UGCAUGU
27 | B27 | 0.0903 KA relative to UGCAUGU
28 | B28 | 0.194 KA relative to UGCAUGU
29 | B29 | 0.0809 KA relative to UGCAUGU
30 | B30 | 0.15 KA relative to UGCAUGU
31 | B31 | 0.118 KA relative to UGCAUGU
